Data published in PubChem BioAssay AID686979 (National Center for Advancing Translational Sciences (NCATS), 2013).
Several values for one entry are separate records, joined by “and”; a condition that tells them apart may be missing. Equal values may be shown once. Hit rate of the full screen: of about 420,000 compounds, about 50,000 (12%) were called active. This list was built around the results that the source calls inconclusive (neither active nor inactive); the mix of calls is not that of the screen. Calls come from the whole dose curve; as a rule, active = well fitted inhibition curve with a large enough effect; inconclusive = small, poorly fitted or top-dose-only effect; inactive = flat fitted curve, though single readings scatter. Potencies of inconclusive entries are doubtful fits and often do not repeat.

Assay: qHTS for Inhibitors of human tyrosyl-DNA phosphodiesterase 1 (TDP1): qHTS in cells in presence of CPT; note: nearly all actives have a fitted effect of over 55% in size
Details: chicken DT40 Tdp1-/-;hTDP1 cells + 20 nM CPT, ATP luminescence, 48 h; series mostly up to 46.2 µM
In short: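 Chicken DT40 Tdp1-/- cells complemented with human TDP1, 400 cells/well, exposed to compounds plus 20 nM camptothecin for at least 48 h at 37 C; viability read as ATP content by CellTiter-Glo luminescence.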
Potency is the fitted concentration of half-maximal effect; tags give direction and shape of the fitted curve.

| SMILES | Potency |
| --- | --- |
| O=C(O)c1cc(=O)c2ccc(Cl)cc2[nH]1 | inactive |
| CCc1nc2c(OCC3CCCCC3)cccn2c1N(C=O)Cc1ccc(OC)cc1 | active: 20.6 µM |
| CC1=C/C(=N\NC(=O)c2cccs2)CC(C)(C)C1 | inconclusive: 29.1 µM [inhibitor, single point] |
| Cc1ccc(S(=O)(=O)N2CCOC23CCN(C(=O)c2cc(Cl)ccc2Cl)CC3)cc1 | inconclusive: 29.1 µM [inhibitor, single point] |
| COc1cc2c(cc1OC)CN(CC(=O)Nc1ccc(C)c(C)c1)CC2 | inconclusive: 23.1 µM [inhibitor, partial curve] |
| O=C(NCCSc1c[nH]c2ccccc12)c1ccc(Br)o1 | inactive |
| CCN(C[C@H]1N[C@@](C)(C(=O)OC)[C@H]2C(=O)N(Cc3ccccc3)C(=O)[C@@H]12)C(=O)Nc1ccc(C)cc1 | inactive |
| CCN1C(=O)[C@H]2[C@@H](c3ccc(-c4ccc5c(c4)OCO5)cc3)N[C@@](Cc3ccccc3)(C(=O)OC)[C@H]2C1=O | inconclusive: 16.4 µM [inhibitor, partial curve, poor fit] |
| CCCn1c2ccccc2c2cnn(CC(=O)NCCCN3CCCCC3CC)c(=O)c21 (stereo unspecified) | inconclusive: 29.1 µM [inhibitor, single point] and inconclusive: 18.4 µM [inhibitor, single point] |
| CCc1cccc(NS(=O)(=O)c2ccc3c(c2)NC(=O)CO3)c1 | inconclusive: 18.4 µM [inhibitor, single point] |
| O=C(C(=O)N1CCC(Cc2ccccc2)CC1)c1cccs1 | inactive |
| NS(=O)(=O)c1ccc(CCNC(=O)c2nc(CS(=O)(=O)c3ccc(Cl)cc3)no2)cc1 | inconclusive: 23.1 µM [inhibitor, partial curve, poor fit] |
| O=C(CSc1nc2ccccc2nc1N1CCCC1)Nc1ccc(F)cc1 | inconclusive: 29.1 µM [inhibitor, single point] |
| Cc1ccc(S(=O)(=O)N(C)c2ccc(C)c([N+](=O)[O-])c2)cc1 | inconclusive: 29.1 µM [inhibitor, single point] |
| Cc1ccc(-c2ccc(SCC(=O)NC3CCCC3)nn2)cc1 | inconclusive: 29.1 µM [inhibitor, single point] |
| FC(F)(F)c1cccc(N2CCN(c3ncnc4c3nc3n4CCCC3)CC2)c1 | active: 9.2 µM |
| COC(=O)CSc1nc2nc(-c3cccs3)cc(C(F)(F)F)c2c(=O)[nH]1 | inactive |
| COc1ccc(NC(=O)c2ccc(NC(=O)CN3CCN(c4ccccc4OC)CC3)cc2)cc1 | inconclusive: 16.4 µM [inhibitor, partial curve] |
| N#Cc1ccc(CN(Nc2ccccc2)c2ccccc2)cc1 | active: 18.4 µM |
| CC1(C)CC(=O)C2=C(C1)NC(=S)C(C#N)C21CCCCC1 (stereo unspecified) | inconclusive: 29.1 µM [inhibitor, single point] |
| CCC(C)NC(=O)c1cc(Sc2cccc(Cl)c2)nc2ccccc12 (stereo unspecified) | active: 16.4 µM |
| CCOc1cc(N2CCOCC2)c(OCC)cc1NC(=O)COC(=O)CCOc1ccc(C(C)(C)C)cc1 | inconclusive: 10.3 µM [inhibitor, partial curve] |
| CN1OC[C@@H]2CN(C(=O)C(C)(C)C)[C@H](c3cccc(Br)c3)C[C@@H]21 | inactive |
| CCOc1ccc(-c2c(C)nn3c(C)c(C(=O)NCCc4ccc(Cl)cc4)cnc23)cc1OCC | active: 14.6 µM |

| SMILES | Potency |
| --- | --- |
| COC(=O)c1ccccc1NC(=O)c1cc2cc(C)ccc2n1C | active: 6.51 µM |
| CC(C)Oc1ccc(CNC(=O)C2CCN(C(=O)N3CCOc4ccccc43)CC2)cc1 | inconclusive: 23.1 µM [inhibitor, single point] |
| Cc1ccc(S(=O)(=O)Cc2ccc(C(=O)N3CCN(c4cccc(Cl)c4)CC3)o2)cc1 | active: 0.651 µM |
| N#CCCN(C(=O)CSc1nc2ccccc2c(=O)[nH]1)c1ccc(F)cc1 | inconclusive: 11.6 µM [inhibitor, partial curve] |
| CC(NC(=O)c1ccccc1SCC(=O)N1CCCC1)c1ccccc1 (stereo unspecified) | inactive |
| COc1cccc(-c2csc(N3CCN(C(=S)Nc4ccccc4OC)CC3)n2)c1 | inconclusive: 13 µM [inhibitor, partial curve, poor fit] |
| Cc1ccccc1OCC(=O)Nc1cccc(C(=O)OCc2cc(=O)n3c(C)csc3n2)c1 | inconclusive: 29.1 µM [inhibitor, single point] |
| Cc1nnc(N=c2ssnc2Cl)o1 | active: 1.03 µM |
| CNC(=S)N(Cc1ccc(Cl)cc1)Cc1cccs1 | inconclusive: 20.6 µM [inhibitor, single point] |
| CCCCOc1ccc(C(=O)N2CCN(CC(=O)Nc3ccc(C)cc3)CC2)cc1OC | inconclusive: 25.9 µM [inhibitor, single point] |
| CCc1cccc(NC(=O)C2CCC(CNS(=O)(=O)c3ccc(Br)s3)CC2)c1 (stereo unspecified) | inconclusive: 16.4 µM [inhibitor, single point] |
| CS(=O)(=O)NNC(=O)Cn1nnc(-c2ccc(OCc3ccccc3Cl)cc2)n1 | inactive |
| COc1ccc(CNC(=O)c2cn(Cc3ccccc3F)c(=O)s2)cc1 | inconclusive: 18.4 µM [inhibitor, single point] |
| Cc1ccc(NC(=O)c2cc(S(=O)(=O)N3CCc4ccccc43)cn2C)c(Cl)c1 | inconclusive: 29.1 µM [inhibitor, single point] |
| O=C(CC1NCCNC1=O)Nc1ccc([N+](=O)[O-])cc1 (stereo unspecified) | inactive |
| O=C(NCCNC(=O)c1ccc([N+](=O)[O-])cc1)c1ccncc1 | inactive |
| CC(C)(C)CN1CCN(Cc2cccnc2)CC1CCO (stereo unspecified) | inactive |
| COc1cccc(-c2nc(CS(=O)(=O)CC(=O)Nc3ccc(C(C)=O)cc3)c(C)o2)c1 | inconclusive: 29.1 µM [inhibitor, single point] |
| CC1=NN(C(N)=S)C(=O)C1N=Nc1ccc(Br)cc1 (stereo unspecified) | active: 20.6 µM |
| CN1C(=O)/C(=C2\SC(=S)N(CCCCCC(=O)O)C2=O)c2ccccc21 | inconclusive: 29.1 µM [inhibitor, single point] |
| CCC1=Nc2cc(C(=O)NCCN(CC)CC)ccc2Sc2ccccc21 | inconclusive: 29.1 µM [inhibitor, single point] |
| CCc1nc2cccnc2n1-c1ccc(CC(=O)Nc2cccc(C)c2C)cc1 | inconclusive: 29.1 µM [inhibitor, single point] |
| c1ccc(CN2CCN(c3ncnc4c3cnn4-c3ccccc3)CC2)cc1 | active: 16.4 µM |
| CCN(CCS(=O)(=O)c1ccc(Cl)cc1)C(=O)Nc1ccccc1 | inactive |

| SMILES | Potency |
| --- | --- |
| Cc1ccc(C)c(S(=O)(=O)c2nnn3c2nc(NC2CCCCC2)c2sccc23)c1 | inconclusive: 20.6 µM [inhibitor, single point] |
| CN(C)c1ncc(S(=O)(=O)c2ccccc2)c(-c2ccc(Cl)cc2Cl)n1 | inactive |
| C[C@H](CO)N1C[C@H](C)[C@@H](CN(C)C(=O)Nc2ccc(C(F)(F)F)cc2)Oc2c(cccc2N(C)C)C1=O | inconclusive: 29.1 µM [inhibitor, single point] |
| Nc1ccc(C(=O)N/N=C\c2ccc(OC(=O)c3ccccc3Cl)cc2)cc1 | inactive |
| Brc1ccccc1OCCCN1CCCC1 | inactive |
| O=C(NCc1ccc(F)cc1)c1ccc(CS(=O)(=O)Cc2ccc(F)cc2)o1 | inconclusive: 29.1 µM [inhibitor, single point] |
| CCOC(=O)CSc1nc2cc(OC)c(OC)cc2cc1C#N | inconclusive: 35.5 µM [inhibitor, single point] |
| Cc1ccc(-n2nc3c(=O)n(CC(=O)NCCCc4ccccc4)nc(C)c3c2C)cc1 | inconclusive: 18.4 µM [inhibitor, single point] |
| COC(=O)c1cc(NC(=O)c2ccccc2F)cc(C(=O)OC)c1 | inactive |
| COc1ccc(-c2nc(N3CCOCC3)nc3n[nH]c(N)c23)cc1 | active: 18.4 µM |
| COc1ccc(C(=S)N2CCN(c3ccccc3Cl)CC2)cc1OC | inconclusive: 18.4 µM [inhibitor, single point] |
| O=C(NNc1nc2c(F)cccc2s1)c1ccc(F)cc1 | inconclusive: 29.1 µM [inhibitor, single point] |
| CCOC(=O)N1CCN(S(=O)(=O)c2c[nH]c(C(=O)OC)c2)CC1 | inactive |
| Cc1ccc(C)c(N2CCN(C(=O)NCc3noc4ccc(C)cc34)CC2)c1 | inconclusive: 20.6 µM [inhibitor, single point] |
| COc1ccccc1/C=C/C(=O)Nc1cccnc1Cl | inactive |
| Cc1ccccc1Cn1c2ccccc2c2cnn(CC(=O)NCc3ccccn3)c(=O)c21 | inconclusive: 9.2 µM [inhibitor, partial curve] |
| CCSc1ccccc1C(=O)Nc1ccc(-c2nc3ccccc3s2)c(O)c1 | active: 9.2 µM |
| COc1ccccc1NC(=O)c1nc[nH]c1C(=O)Nc1ccccc1OC | inactive |
| CCC(=O)N1CCN(c2ccc(Cl)cc2NC(=O)c2ccc(Br)o2)CC1 | inconclusive: 1.64 µM [inhibitor, partial curve, poor fit] |
| Nc1ncnc(N)c1N=Nc1ccccc1 | active: 23.1 µM |
| Cc1ccccc1CN1CCC(CNC(=O)C2CCCN(c3ncnc4c3nc3n4CCCCC3)C2)CC1 (stereo unspecified) | inconclusive: 18.4 µM [inhibitor, single point] |
| CCOCCCNS(=O)(=O)c1ccc(NC(=O)c2ccc(OC)c([N+](=O)[O-])c2)cc1 | inconclusive: 29.1 µM [inhibitor, single point] |
| COc1ccccc1N(CC(=O)NCc1ccco1)S(=O)(=O)c1ccc(C)cc1 | inactive |
